Among all 310,000 compounds or so, about 14,000 (4.5%) showed an effect of 50% or more. The effect is printed as a negative number. Some of the results follow.
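Note: peak tail current of the secondary pulse compared with the same well before compound.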

The target of the assay is human ether-à-go-go-related gene (hERG) potassium channel (human, UniProt Q12809). Kind of assay: primary screen, population patch clamp on CHO cells stably expressing hERG.
human ether-à-go-go-related gene (hERG) potassium channel, sequence (Q12809 whole entry, looked up): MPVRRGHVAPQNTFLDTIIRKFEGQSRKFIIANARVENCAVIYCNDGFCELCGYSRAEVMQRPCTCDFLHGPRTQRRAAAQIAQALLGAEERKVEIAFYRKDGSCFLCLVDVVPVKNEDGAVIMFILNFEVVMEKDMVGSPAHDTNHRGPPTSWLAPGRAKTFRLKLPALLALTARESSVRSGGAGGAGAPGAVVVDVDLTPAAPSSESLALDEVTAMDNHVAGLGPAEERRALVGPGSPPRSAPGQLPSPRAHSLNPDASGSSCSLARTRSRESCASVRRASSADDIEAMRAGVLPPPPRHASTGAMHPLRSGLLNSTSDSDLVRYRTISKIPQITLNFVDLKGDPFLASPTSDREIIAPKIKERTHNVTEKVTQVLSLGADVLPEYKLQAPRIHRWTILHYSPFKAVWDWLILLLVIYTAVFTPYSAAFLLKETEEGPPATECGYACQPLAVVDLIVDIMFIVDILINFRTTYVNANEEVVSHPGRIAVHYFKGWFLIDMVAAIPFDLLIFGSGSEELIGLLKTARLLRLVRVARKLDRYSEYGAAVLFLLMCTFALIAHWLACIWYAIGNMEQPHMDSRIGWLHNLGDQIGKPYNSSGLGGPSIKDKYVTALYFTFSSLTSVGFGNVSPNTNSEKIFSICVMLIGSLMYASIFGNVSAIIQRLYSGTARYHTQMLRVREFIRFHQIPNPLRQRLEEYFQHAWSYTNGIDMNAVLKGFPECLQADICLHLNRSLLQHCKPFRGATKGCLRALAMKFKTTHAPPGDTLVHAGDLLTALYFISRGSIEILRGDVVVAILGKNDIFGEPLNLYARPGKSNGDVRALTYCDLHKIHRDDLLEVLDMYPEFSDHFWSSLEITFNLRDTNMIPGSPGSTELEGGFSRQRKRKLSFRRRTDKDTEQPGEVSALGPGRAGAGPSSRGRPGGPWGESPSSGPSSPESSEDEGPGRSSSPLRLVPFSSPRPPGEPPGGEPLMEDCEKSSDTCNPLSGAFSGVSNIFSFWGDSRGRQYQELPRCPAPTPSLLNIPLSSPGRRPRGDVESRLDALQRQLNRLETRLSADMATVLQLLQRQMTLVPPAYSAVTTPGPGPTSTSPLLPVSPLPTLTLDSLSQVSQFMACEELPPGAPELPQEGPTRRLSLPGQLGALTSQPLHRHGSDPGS
As to `O=C(COC(=O)C1CCC1)NCc1ccccc1Cl`, the “hERG current change (%, negative = inhibition) at 10uM” value is on record as 7.42%.
On to `Cc1csc(NC(=O)CN2C(=O)c3ccccc3C2=O)c1C(N)=O`, for which the “hERG current change (%, negative = inhibition) at 10uM” value is on record as -5.92%.
With `CC1(C)CC(=O)C(C=NCC(O)c2ccccc2)=C(O)C1` (centres unmarked), the “hERG current change (%, negative = inhibition) at 10uM” value is recorded as 17.1%.
For the compound `CCN(CCCNC(=O)Cn1ncc2c([nH]c3ccc(C)cc32)c1=O)Cc1ccccc1`, the “hERG current change (%, negative = inhibition) at 10uM” value is given as -58.5%.
For `O=S(=O)(c1ccc(NC(=S)NN=C2CCCCC2)cc1)N1CCOCC1`, the “hERG current change (%, negative = inhibition) at 10uM” value is recorded as -2.96%.
The value for `Cc1cc(C)n2nc(C(=O)OCC(=O)Nc3ccc(F)cc3F)nc2n1` was 8.68%; that for `CCCCn1c(=O)n(CC(O)c2ccccc2)c(=O)c2c1ncn2C1CCCC1` (centres unmarked) was -37%; that for `O=c1ccc(-c2ccc(S(=O)(=O)NCC3CCN(Cc4ccccc4F)CC3)s2)n[nH]1` was -32.6%.
The value for `Cc1ccc(C)c(NS(=O)(=O)c2ccc3[nH]c(=O)[nH]c3c2)c1` was 0.304%.
In the case of `O=S(=O)(c1ccc2c(c1)N(Cc1ccc(Cl)cc1)C1CCCN21)N1CCOCC1` (centres unmarked), the “hERG current change (%, negative = inhibition) at 10uM” value is 0.641%.
The value for `CCn1c(SCC(=O)N2CCN(C(=O)c3ccco3)CC2)nnc1C(C)C` was 14.4%; that for `Cc1noc(C)c1C(=O)OCC(=O)NC1CC1` was 5.6%; that for `CC(C)N(Cc1ccco1)/N=C/c1c(O)n(Cc2ccccc2)c(=O)[nH]c1=O` was 8.85%.
Turning to `CN(C)CCCn1c(SCc2c(Cl)cccc2Cl)nnc1-c1ccncc1.O=C(O)C(=O)O`, the “hERG current change (%, negative = inhibition) at 10uM” value is listed as -0.471%.
`CCOC(=O)Cc1c(C)nc2c(-c3ccc(Cl)cc3)c(C)nn2c1C`: the “hERG current change (%, negative = inhibition) at 10uM” value amounted to 9.91%.
The value for `COc1cccc(/C=C2\N=C(SC)SC2=O)c1OC` was -1.25%; that for `Cn1nnnc1CCOCCc1nnnn1C` was 4.52%; that for `CCOC(=O)[C@@H]1[C@H]2COc3cc(OC)ccc3[C@H]2N2C(=O)N(c3ccc(F)cc3)C(=O)[C@@]12C` was 16.3%.
The value for `CCOC(=O)Cn1c(=O)oc2cc(S(=O)(=O)NCCc3ccc(C)cc3)ccc21` was -29.6%; that for `CC(CN1CCOCC1)C(=O)c1ccccc1.Cl` (centres unmarked) was 8.47%.
Consider `CCc1cc2c(SCC(=O)c3cccs3)ncnc2s1`, for which the “hERG current change (%, negative = inhibition) at 10uM” value was found to be 13.7%.
The value for `O=C(NCCCN1CCOCC1)/C(=C/c1ccc(F)cc1)NC(=O)c1ccccc1` was -73.5%; that for `O=C(c1cc([N+](=O)[O-])ccc1N1CCOCC1)N1CCN(c2ccccc2)CC1` was -32.3%; that for `CCOC(=O)c1c(NC(=O)CSc2nnc(-c3ccncc3)n2Cc2ccco2)sc(C)c1C` was -19.3%.
The value for `COc1cccc(CCNc2ccc(N3C(=O)CC(C)C3=O)cc2[N+](=O)[O-])c1` (centres unmarked) was 11.6%; that for `COc1ccc(C(=O)NCCOc2ccccc2Cl)c(OC)c1OC` was -11.1%.
The value for `CCOC(=O)C1CCN(S(=O)(=O)c2ccc(-c3ccc(=O)[nH]n3)o2)CC1` was -39.4%; that for `O=C(C1CCN(Cc2ccccc2O)CC1)N1CCN(Cc2ccc3c(c2)OCO3)CC1` was -23%; that for `COCC(=O)Nc1nnc(CCc2ccccc2)s1` was -1.23%.
Consider `N/C(CN1CCCC1=O)=N\OC(=O)c1ccccc1Cl`, for which the “hERG current change (%, negative = inhibition) at 10uM” value is recorded as -12.1%.
In the case of `O=C(COc1ccccc1)N1CCN=C1c1ccccc1`, the “hERG current change (%, negative = inhibition) at 10uM” value is -77.5%.
`O=C(/C=C/c1ccco1)NC(=S)Nc1ccc(N2CCOCC2)c(Cl)c1`: the “hERG current change (%, negative = inhibition) at 10uM” value is reported as -9.29%.
The value for `CS(=O)(=O)N(CC(=O)O)c1cccc(Cl)c1` was 8.91%; that for `CN(C(=O)CSc1nc(-c2ccccc2)cn1N)C(c1ccccc1)c1ccccc1` was 5.96%; that for `CCCCCC(=O)Oc1cccc(N2C(=O)C3CCCCC3C2=O)c1` (centres unmarked) was 28.1%.
Take `Cc1cccc(Nc2nnc(SCC(=O)N(C)C3CCS(=O)(=O)C3)s2)c1C` (centres unmarked): the “hERG current change (%, negative = inhibition) at 10uM” value is 6.11%.
Turning to `Cc1ccc(-c2nnc(-c3ccccc3)c(N3CCOCC3)n2)cc1`, the “hERG current change (%, negative = inhibition) at 10uM” value is on record as -30%.
The value for `Oc1ccc(C[C@H]2CNCCN2CCc2cc(C(F)(F)F)cc(C(F)(F)F)c2)cc1` was -42.2%; that for `CCC(Sc1nc2ccc(C)cc2[nH]1)C(=O)O` (centres unmarked) was 5.08%.
On to `CC(C)(C)C(=O)CSc1nc2ncc(Br)cc2[nH]1`, for which the “hERG current change (%, negative = inhibition) at 10uM” value was determined as 1.79%.
Consider `Cc1nnc(SCC(=O)Nc2ccc(N3CCN(S(C)(=O)=O)CC3)cc2)o1`, for which the “hERG current change (%, negative = inhibition) at 10uM” value turned out to be 13.8%.
For `Clc1ccc(-c2csc(N/N=C/c3ccc4c(c3)OCO4)n2)cc1`, the “hERG current change (%, negative = inhibition) at 10uM” value was -4.67%.
`COc1ccc(NC(=O)CSc2nnc(C3CCCCC3)n2-c2ccccc2)cc1`: the “hERG current change (%, negative = inhibition) at 10uM” value was -24.3%.
The value for `Br.O=C(Cn1c(NCCCO)nc2ccccc21)c1ccc([N+](=O)[O-])cc1` was -33.3%; that for `COC(=O)c1ccc(-n2c(C)nc(=O)c(-c3ccccc3)c2C)cc1` was -0.769%.
For the compound `O=C(N/N=C/c1ccco1)C1CCCC1`, the “hERG current change (%, negative = inhibition) at 10uM” value was determined as 22.1%.
With `COc1cccc(CNC(=O)Cc2c(C(=O)O)[nH]c3ccccc23)c1`, the “hERG current change (%, negative = inhibition) at 10uM” value is 8.83%.
The value for `CCOC(=O)C1(CCCc2ccccc2)CCN(C(=O)C(C)n2cncn2)CC1` (centres unmarked) was -29%.
Consider `Cc1nc2cc(-c3ccc(Br)cc3)[nH]n2c(=O)c1Cl`, for which the “hERG current change (%, negative = inhibition) at 10uM” value turned out to be 20%.
The value for `O=C(NCc1ccc(F)cc1)C1CCC(=O)N1CCc1ccccc1` (centres unmarked) was -24%; that for `CC1CCN(Cc2c(C(=O)N/N=C/c3ccc(C(C)C)cc3)nnn2-c2nonc2N)CC1` was 20.2%; that for `CC(=O)Nc1ccc(S(=O)(=O)Nc2ccc(NC(=O)c3ccco3)cc2)cc1` was 5.13%.
Turning to `CC1(C)Cc2c(cnn2-c2ccc(F)cc2)C(NC(=O)C2=NNC(=O)CC2)C1` (centres unmarked), the “hERG current change (%, negative = inhibition) at 10uM” value is -68.4%.
The value for `CCCCNC(=O)Nc1ccccc1CC` was 23.6%.
As to `O=S(=O)(c1ccccc1)N1CCN(CCO)CC1`, the “hERG current change (%, negative = inhibition) at 10uM” value was -6.08%.
With `CCOc1ccc(C(=O)NCC(=O)N2CCN(c3ccc(C(F)(F)F)cn3)CC2)cc1`, the “hERG current change (%, negative = inhibition) at 10uM” value is on record as -7.32%.

(Values after publication PMC4336329 (PLoS ONE, 2015).)
